Hit rate of the full screen: of about 1,100 compounds, about 390 (35%) were called active. This list was built around the results that the source calls inconclusive (neither active nor inactive); the mix of calls is not that of the screen. The call rests on the fitted dose curve; in most records, active means well fitted inhibition curve with a large enough effect; inconclusive means small, poorly fitted or top-dose-only effect; inactive means flat fitted curve, though single readings scatter. A potency beside an inconclusive call is a rough fit, not a confirmed value.
target: Luciferin 4-monooxygenase (Photinus pyralis) (UniProt P08659); experiment: qHTS of Nrf2 Activators: Hit Validation in Secondary FLuc Assay; conditions: firefly luciferase inhibition counter-screen, luminescence; series mostly up to 57.5 µM; further: nearly all actives have a fitted effect of over 65% in size
In short: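 Counter-screen on purified firefly luciferase with ATP and D-luciferin at Km concentrations; compounds flagged if they inhibit the enzyme, indicating possible reporter stabilization rather than ARE activation.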
Potency means the concentration at half of the fitted maximal effect; tags describe the fitted curve by direction and shape.

Row | Compound | Potency
1 | Cc1cc(NC(=O)Nc2cc(Cl)sc2Cl)no1 | inconclusive: 10.7 µM [inhibitor, partial curve]
2 | O=C(Nc1nc2ccccc2[nH]1)c1cccc([N+](=O)[O-])c1 | inconclusive: 1.9 µM [inhibitor, full curve]
3 | CCCS(=O)(=O)c1nc(S(=O)(=O)c2ccc(C)cc2)c(N2CC(C)OC(C)C2)s1 (stereo not given) | inactive
4 | NC(=O)c1nc(Nc2ccccc2)sc1NC(=O)c1c(F)cccc1F | inconclusive: 5.36 µM [inhibitor, partial curve]
5 | Fc1ccc2cc(-c3ccsc3)ncc2c1 | active: 1.69 µM
6 | COc1ccc(Cl)cc1NC(=O)c1cc(-c2ccccc2O)n[nH]1 | inactive
7 | Cc1ccc(C)c(/C=N/Nc2ccccn2)c1 | inconclusive: 3.79 µM [inhibitor, full curve]
8 | O=C(/C=C/c1ccco1)NC(=S)Nc1nc(-c2ccc(Cl)cc2)cs1 | inconclusive: 21.3 µM [inhibitor, single point]
9 | N#C/C(=C(/O)c1ccc(Br)s1)c1nc2ccccc2[nH]1 | inconclusive: 2.13 µM [inhibitor, full curve]
10 | CC(/C=N/Nc1nnc2c(n1)[nH]c1ccccc12)=C\c1ccco1 | inconclusive: 4.26 µM [inhibitor, partial curve]
11 | Brc1ccccc1/C=N/Nc1ccccn1 | inconclusive: 1.51 µM [inhibitor, full curve]
12 | NS(=O)(=O)c1ccc(NC(=O)c2cc(-c3cccs3)nc3ccccc23)cc1 | inconclusive: 15.1 µM [inhibitor, partial curve]
13 | Cc1cc(O)c(NC(=O)c2cc([N+](=O)[O-])ccc2Cl)cc1C | inconclusive: 37.9 µM [inhibitor, single point]
14 | CCCc1c(C(=O)N/N=C/c2cccs2)nnn1-c1nonc1N | inconclusive: 7.57 µM [inhibitor, partial curve]
15 | COc1ccc(N=Nc2ccc(O)c3ncccc23)cc1 | active: 9.53 µM
16 | Cc1ccc(C(=O)/C=C/c2ccc(-c3ccccc3[N+](=O)[O-])o2)cc1 | active: 2.69 µM
17 | O=[N+]([O-])c1ccc(/C=[N+](\[O-])[C@@H]2CCCC[C@@H]2/[N+]([O-])=C/c2ccc([N+](=O)[O-])o2)o1 | inactive
18 | Oc1ccccc1-n1nc2ccc3nonc3c2n1 | inactive
19 | Cc1cc(NC(=O)C2CCCC2)nc2c1c(=O)oc1ccccc12 | inconclusive: 12 µM [inhibitor, partial curve]
20 | Fc1ccc2nncc(SCc3ccccc3Cl)c2c1 | inconclusive: 15.1 µM [inhibitor, partial curve]
21 | COc1cccc(C(=O)Nc2cc(Cl)c(O)c(Cl)c2)c1 | active: 12 µM
22 | Cc1ccc(S(=O)(=O)c2nc(S(C)(=O)=O)sc2N2CC(C)OC(C)C2)cc1 (stereo not given) | inactive
23 | O=C(COC(=O)/C=C/c1ccco1)NCc1ccccc1Cl | inactive
24 | Cc1ccc(/C=C/C(=O)c2ccc([N+](=O)[O-])o2)cc1 | inconclusive: 1.51 µM [inhibitor, full curve]

Row | Compound | Potency
25 | O=C(N/N=C/C(Br)=C/c1ccccc1)c1ccc([N+](=O)[O-])cc1 | inactive
26 | COC(=O)c1sc(NC(=O)c2ccco2)nc1C | inconclusive: 8.49 µM [inhibitor, partial curve]
27 | O=C(NCc1ccco1)c1ccccc1-c1nc(-c2ccc(F)cc2)no1 | inconclusive: 15.1 µM [inhibitor, partial curve]
28 | O=C(Nc1cc(-c2nc3ncccc3o2)ccc1Cl)c1cccs1 | inconclusive: 15.1 µM [inhibitor, partial curve]
29 | Cc1cc(C)c2c(N)c(C(=O)c3ccc(Br)cc3)oc2n1 | inconclusive: 7.57 µM [inhibitor, full curve]
30 | O=C(CN1C(=O)S/C(=C\c2ccccc2Cl)C1=O)NC1C=CS(=O)(=O)C1 (stereo not given) | inconclusive: 37.9 µM [inhibitor, single point]
31 | O=[N+]([O-])c1ccccc1/C=C/C=N/n1c(-c2ccco2)n[nH]c1=S | active: 7.57 µM
32 | Cc1n[nH]c(=S)n1/N=C/c1ccc(-c2ccccc2[N+](=O)[O-])o1 | active: 9.53 µM
33 | Cc1c(=O)n(OCc2ccccc2)c2ccccc2[n+]1[O-] | inactive
34 | N#CC(=C1C=CC(=NO)C(Cl)=C1)c1ccccc1 | inconclusive: 1.9 µM [inhibitor, full curve]
35 | Nc1nccc(-c2ccc(-n3cccc3)cc2)n1 | inconclusive: 1.51 µM [inhibitor, full curve, poor fit]
36 | C#CCSc1nc(-c2cccs2)ccc1C#N | inactive
37 | COc1ccccc1NC(=O)/C(C#N)=C/c1cccn1C | inconclusive: 7.57 µM [inhibitor, partial curve]
38 | Cc1cc(NC(=O)CC(C)(C)C)nc2c1c(=O)oc1ccccc12 | inactive
39 | COc1ccc(Cl)cc1C(=O)O/N=C(\N)c1ccccn1 | active: 10.7 µM
40 | Cc1ccc(Cc2c(-c3ccco3)nc3c(C)cc(Br)cn23)cc1 | active: 5.36 µM
41 | O=C(NCc1ccco1)c1ccccc1-c1nc(-c2ccccc2)no1 | inconclusive: 12 µM [inhibitor, partial curve]
42 | Cc1cccc(NC(=O)Nc2ccccc2[N+](=O)[O-])n1 | inconclusive: 9.53 µM [inhibitor, partial curve]
43 | COc1ccc([C@H]2Cc3cccc(O)c3C(=O)O2)cc1O | inactive
44 | O=C(CC1S/C(=N/N=C/c2ccco2)NC1=O)Nc1ccccc1 (stereo not given) | inactive
45 | Cc1cc(C)cc(OC(=O)CS(=O)c2ccc(C(F)(F)F)cc2[N+](=O)[O-])c1 (stereo not given) | inconclusive: 21.3 µM [inhibitor, single point]
46 | Fc1ccc2nc(Nc3nc4c(F)cc(F)cc4s3)sc2c1 | active: 6.75 µM
47 | O=C(CCS(=O)(=O)c1ccccc1)Nc1nc2c(s1)COc1ccccc1-2 | inconclusive: 21.3 µM [inhibitor, single point]
48 | CCOc1ccccc1NC(=O)C1COc2ccccc2O1 (stereo not given) | inactive

Row | Compound | Potency
49 | S=C(NCc1ccco1)Nc1ccccn1 | inconclusive: 10.7 µM [inhibitor, partial curve]
50 | COCCNC(=O)c1ccc(-n2c(-c3ccccc3)cc3c2CCC(C)C3)cc1 (stereo not given) | inactive
51 | COC(=O)c1ccc2nc(-c3cccc(Br)c3)c(Cc3ccccc3OC)n2c1 | inconclusive: 12 µM [inhibitor, partial curve]
52 | N#Cc1cnc2cc(-c3ccccc3)nn2c1N | inconclusive: 7.57 µM [inhibitor, full curve]
53 | Cc1ccc(N=C2NC(=O)S/C2=C\c2ccco2)cc1 | inconclusive: 6.75 µM [inhibitor, partial curve]
54 | O=C(Nc1c(O)c2ccccc2[nH]c1=O)c1ccco1 | inactive
55 | CSc1ccccc1NC(=O)COC(=O)/C=C/c1ccco1 | inconclusive: 23.9 µM [inhibitor, single point]
56 | c1ccc2c(c1)nnn2-c1ncnc2sccc12 | inconclusive: 2.69 µM [inhibitor, full curve]
57 | C#CCOc1ccc(/C=C2\SC(=S)N(Cc3cccnc3)C2=O)cc1 | inconclusive: 2.13 µM [inhibitor, full curve]
58 | O=c1[nH]c(O)c(/C=C2\C=Nc3ccc(Br)cc32)[nH]1 | inconclusive: 26.9 µM [inhibitor, single point]
59 | O=C(O)CCCCCN1C(=O)/C(=C\c2ccncc2)SC1=S | inconclusive: 23.9 µM [inhibitor, single point]
60 | c1coc(-c2ccnc3nc(-n4cccc4)nn23)c1 | inactive
61 | COc1nc(-c2ccccc2)cc(-c2ccccc2)n1 | inactive
62 | O=C(CN1CCCCC1)Nc1nnc(-c2ccccc2)s1 | inconclusive: 19 µM [inhibitor, partial curve]
63 | O=C(CCS(=O)(=O)c1ccccc1)Nc1nc2ccc(F)cc2s1 | inactive
64 | CC1Oc2ccccc2OC1C(=O)Nc1ccccn1 (stereo not given) | inactive
65 | CCOc1cc(/C=C/c2ccc3cccc([N+](=O)[O-])c3n2)cc(Cl)c1O | inconclusive: 7.57 µM [inhibitor, partial curve]
66 | O=c1c(-c2ccco2)[n+]([O-])c2ccccc2n1OCc1ccccc1 | inconclusive: 16.9 µM [inhibitor, partial curve]
67 | O=C(NC(=S)Nc1cc(C(F)(F)F)ccc1Cl)c1ccccc1 | inactive
68 | CCCNC(=O)c1ccc(S(=O)(=O)c2ccc(OC)cc2)c([N+](=O)[O-])c1 | inactive
69 | c1cc2c3c(cccc3c1)NN=N2 | inconclusive: 37.9 µM [inhibitor, single point]
70 | Cc1ccc(-c2nc3sc(C#N)c(N)n3c(=O)c2C#N)cc1 | inconclusive: 13.5 µM [inhibitor, partial curve]
71 | O=C(Nc1ccccc1F)c1ccc(-c2cccc([N+](=O)[O-])c2)o1 | inconclusive: 2.39 µM [inhibitor, full curve]
72 | COc1ccccc1NC(=O)/C(C#N)=C/C=C/c1ccco1 | inactive

Row | Compound | Potency
73 | Oc1ccc(Br)cc1-c1cc(-c2ccco2)[nH]n1 | active: 16.9 µM
74 | CCOc1cc2ccccc2cc1C(=O)Nc1ccccn1 | active: 5.36 µM
75 | Cc1cccc(NC(=O)C2CC(=O)N/C(=N/N=C/c3ccco3)S2)c1 (stereo not given) | inactive
76 | Cc1cc(-c2cccs2)nc(-n2cccc2)n1 | inconclusive: 13.5 µM [inhibitor, partial curve]
77 | O=C(NCCc1ccccn1)c1c(-c2ccsc2)sc2ccccc12 | inconclusive: 26.9 µM [inhibitor, single point]
78 | O=c1[nH]ncc(N/N=C\c2cccs2)c1Cl | inconclusive: 21.3 µM [inhibitor, partial curve, poor fit]
79 | Cc1ccc(S(=O)(=O)/N=C(/NNC(=O)c2cccc(Cl)c2)c2ccccc2)cc1 | active: 5.36 µM
80 | c1cncc(-c2nc(NCc3ccco3)c3ccccc3n2)c1 | inconclusive: 23.9 µM [inhibitor, single point]
81 | FC(F)(F)c1ccccc1Cc1c(-c2ccccc2)nc2c3ccccc3ccn12 | active: 5.36 µM
82 | CCOc1ccccc1NC(=S)NC(=O)c1ccco1 | inconclusive: 15.1 µM [inhibitor, partial curve]
83 | CC(=O)Nc1ccc(N=Nc2ccccc2)cc1[N+](=O)[O-] | inconclusive: 5.36 µM [inhibitor, partial curve]
84 | CN1C2CCC1/C(=C\c1ccc(F)cc1)C(=O)/C2=C/c1ccc(F)cc1 | inactive
85 | C=C(C)CNC(=S)N/N=C(\C)c1ccc(Cl)s1 | inactive
86 | O=[N+]([O-])c1cccc(-c2nnc(-c3ccccc3)o2)c1 | active: 2.39 µM
87 | Cc1ccc(S(=O)(=O)c2nc(S(C)(=O)=O)sc2N2CCN(C)CC2)cc1 | inactive
88 | Cc1ccccc1OCC(=O)Nc1ccccc1CO | inconclusive: 16.9 µM [inhibitor, partial curve]
89 | O=C1CC(C(=O)Nc2ccc(Cl)c(Cl)c2)S/C(=N\N=C\c2ccco2)N1 (stereo not given) | inactive
90 | COC(=O)[C@@H]1Cc2c([nH]c3ccccc23)C(C)(C)N1C(=O)CCl | inactive
91 | COc1ccccc1Nc1nc2ccccc2n2cnnc12 | inconclusive: 15.1 µM [inhibitor, partial curve]
92 | O=C(c1ccco1)c1cc2c(ccc3ccccc32)oc1=O | inconclusive: 16.9 µM [inhibitor, partial curve]
93 | Nn1c(-c2ccccc2)nc2cc(Cl)ccc2c1=O | inactive
94 | O=C(CN1CCN(Cc2ccccc2Cl)CC1)N/N=C/C=C/c1ccco1 | inactive
95 | CC(C)CCn1c(O)c(N=Nc2ccccn2)c2ccccc21 | inconclusive: 23.9 µM [inhibitor, single point]
